The supplement of paper PMC3334620
The full ranking holds about 33,000 sequences; the median of “E-score (-0.5 to 0.5)” is about -0.013, and the highest 2% start at about 0.3. Some of the results follow.

target: T1, Msn1 (UniProt P22148); experiment: PBM E-score (8-mer binding enrichment) (E-score (-0.5 to 0.5)); higher = stronger / more preferred TF binding; most listed sequences are background and not binding sites; conditions: protein concentration: 200 nM; construct: GST-full length
T1 sequence: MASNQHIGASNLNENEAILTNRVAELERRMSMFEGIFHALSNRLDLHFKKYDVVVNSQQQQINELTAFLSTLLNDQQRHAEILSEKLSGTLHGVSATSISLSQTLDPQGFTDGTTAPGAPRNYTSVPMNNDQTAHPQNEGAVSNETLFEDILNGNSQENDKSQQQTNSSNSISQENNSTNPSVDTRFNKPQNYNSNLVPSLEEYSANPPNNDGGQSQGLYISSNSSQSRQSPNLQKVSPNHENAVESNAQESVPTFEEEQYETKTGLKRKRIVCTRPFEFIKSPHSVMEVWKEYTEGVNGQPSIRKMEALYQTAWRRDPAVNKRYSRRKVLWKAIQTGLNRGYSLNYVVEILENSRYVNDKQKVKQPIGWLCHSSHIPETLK
Method in brief: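 Yeast transcription factors carrying a GST tag, as full-length proteins or DNA-binding domains, were produced by PURExpress in vitro transcription/translation. About 100-200 nM protein was applied to universal all-10-mer Agilent arrays, double-stranded by primer extension on fresh or once-stripped slides. Bound protein was detected with fluorescent anti-GST, and scans were normalised with masliner. The Universal PBM Analysis Suite gave each ungapped eight-base word, pooled with its reverse complement, an E-score, a modified Wilcoxon-Mann-Whitney statistic.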

Sequence	PBM E-score
AATTTCAC	0.0162
ACTCGTCT	0.0875
AAGCACTC	-0.237
GCGGAGCA	-0.125
CGCATAGC	-0.257
AAGGTCAG	-0.0987
AGTCCGCG	0.0969
GAGTGAGC	0.00141
CGAGGGAA	-0.00712
CTATTGGC	-0.112
GGGAACAA	0.0643
CCCACGAC	-0.0528
TCGGGGAA	0.105
CCAACTCC	0.00265
AATTGAGC	-0.109
CGGGTTAG	-0.252
AAGGCTAG	0.0752
ACCCTGTA	0.0623
CGTTGGCC	-0.086
ATAATAGG	-0.0345
ATCATGTC	0.278
ACTGTACT	-0.00421
CTCTATTA	-0.056
CAGAGGGG	-0.377
CGTTACAG	-0.139

Sequence	PBM E-score
AGGGTTCA	0.0476
GTTACACA	0.0679
ATCGTTAA	0.0888
CTATTTTA	0.194
CCTGGTAC	-0.0538
AGTGGTCC	-0.149
GTAATGTA	0.0561
CCAACAAG	0.151
AAGTTAAC	0.143
ACTATCTC	0.0498
CGTATGTC	0.359
CAACTCTC	-0.0826
CCAATCCC	-0.0552
ACCAGTCA	-0.0816
ATAAATTA	0.343
CACCATAC	-0.153
GTTGACGA	0.018
GTTTCTAA	0.0436
CAGTGCAA	0.0198
GTTTACTA	0.129
GGCGTTTA	-0.0346
TACACCCA	-0.0711
CAAATTTG	0.32
ATGTTGAC	0.137
CAGGGGGA	-0.435

Sequence	PBM E-score
GAGTCTAC	-0.249
TTAATGAA	0.228
CTATCAAC	0.157
GCTTCCCA	-0.191
AAAGCTTC	-0.0561
ATATCGAT	0.0924
CTATGCTA	0.0452
GGACATCC	0.475
CCTTGCGC	-0.193
CCTACACG	-0.141
CCAAAGGG	-0.153
ACAGCAGA	0.0129
ACGGTGTC	-0.047
CTCTCCAG	-0.342
GACCGCTC	-0.267
AGCTCCCC	-0.259
ACATATGT	0.28
ACAGCGGC	-0.0078
CGATCTGA	-0.129
GATTCAGA	0.143
CCCTACAG	-0.19
ACGCTTCA	-0.133
ATCTTCAC	0.095
AAACCCGT	-0.222
CCGGCTTA	-0.14

Sequence	PBM E-score
CATCTATC	-0.14
AGTAGGTG	-0.0635
TCGGGACA	0.456
GACCCTGA	-0.102
AAACCGCA	-0.105
CCCGGTTC	-0.207
CACGTTCA	-0.0285
GCGCGATA	0.119
TGCAGAAA	0.0713
GTCTACGA	0.125
AGTTGTCC	0.441
ATTGAGTC	-0.0428
CGGAACGA	0.167
GTCTAACA	0.115
AAATTGCA	-0.0544
ATGTTTTG	0.12
CAGTACGG	-0.0455
AGGCTACC	-0.104
CGCTATAC	-0.194
GCGTCAGC	-0.0982
GCTTGCCC	-0.405
GTACCGTA	-0.107
CAAACGTA	0.167
ACTGACCT	-0.063
CTCTATCA	-0.0423

Sequence	PBM E-score
GATTGGGC	-0.116
GGAAAACA	0.0419
CGATAAAC	-0.0453
GTCTCAGA	0.0346
ATAACGAC	0.0786
CCAACGAC	-0.0286
ACCAGACC	-0.137
GATTAATA	0.143
GGGGAATA	-0.0106
TAAAACAA	0.0622
AGAATCCA	-0.0394
ACCTCCGG	0.0704
GATTAGTA	0.0785
CGACTCGC	-0.0899
AAGATATT	0.165
GTATGTTA	0.0222
GAGAATTA	0.0576
AGAATTCC	-0.006
AGACGTTA	0.0306
GACCTTGA	-0.0767
AAACATCA	0.0319
AGGTAGGG	-0.303
ACACTTGG	-0.0164
GGTGCCAA	-0.0356
ACTTCGAG	0.145

Sequence	PBM E-score
ATCGGCTC	0.0731
CACTATTC	0.109
CATGCACG	-0.204
AAGGATGA	-0.0102
AAGTTCGG	0.179
CTGGACCA	0.0881
AAGAGATG	-0.123
TGTCAGAA	0.164
ACGTTGAA	-0.0523
ATGCAACC	0.0478
GCTACAAA	0.0669
ATCGACCA	-0.0891
CGAGAATC	0.135
ACACAATC	0.117
CCCGCCTA	-0.00212
GGATTAAC	-0.0303
AATAAGAC	-0.00866
CGTCTAGC	-0.0279
AAGCCCGA	-0.00654
CGCCGCTC	-0.118
ATGATATC	0.00666
CCCCACGC	-0.289
ATGAGCCA	-0.0639
TGATTGCA	0.00362
ACCCGCAC	-0.149

Sequence	PBM E-score
CAGGGATC	-0.266
AGGACTCG	0.112
GACAAATA	0.483
CAGACGGG	-0.28
AAATCCCG	0.226
AGGATTGC	-0.179
GAGTGGAA	-0.0722
AGGGCCAA	-0.218
ACGTCAGC	-0.116
GCTATGAC	0.221
AGCCAATC	-0.0429
CCGTCACG	-0.0257
TCCGAGCA	0.104
GAAGGCAA	-0.0336
AAGATATG	0.102
ACCTAGCA	-0.0383
CCAAAGGC	-0.088
CGTAGTAA	-0.0642
ACAGACGA	0.153
AATGCGAT	0.0073
AATCCAGG	0.033
CACGTGAG	0.00406
CCGCAAAG	0.0143
GCCCGATA	-0.0301
ACGGTTTC	0.0404

Sequence	PBM E-score
ACGTCTCA	0.0211
GCACATAC	-0.162
CTGGTCGA	-0.256
GATAGTTA	0.165
AATTCGAA	0.017
CATGGATC	-0.0448
AGTATGCC	-0.0784
CTAGCTCA	-0.0294
AGGAGCAA	-0.208
CAGGCAAG	-0.187
CTTCAGTA	0.0429
CTGCAGCA	-0.131
CGCCGCCC	-0.157
TAAAACCA	0.133
ATCTGCGC	-0.0533
ACGCGCTA	-0.0481
GCATGCAA	-0.0104
CCAGGTCG	-0.104
AAGGTAGG	-0.0736
AACGGTCT	-0.0125
AAACACTG	0.00165
TGGTGAAA	-0.237
CAGGTCAA	-0.0471
GGACGCCC	-0.223
GAGGAAAA	0.0221

Sequence	PBM E-score
CGATCATA	0.0147
CCGGTGGA	-0.00742
AGTGATTG	0.108
ACGAGTGG	-0.166
ATTCTAGA	-0.044
ACGTCGTA	-0.158
GTTAATAA	0.138
CTGTCGAC	-0.0573
GCAAGACA	0.157
TGGCCCAA	-0.0694
CCACGGCG	-0.0661
GGGCAGCA	-0.164
CCGACCAA	-0.0361
AGGCTCGA	-0.00968
CCACTCTC	-0.25
ACGACACT	0.123
AGCCCATC	-0.119
ACAGTCGC	-0.126
AACATCAG	0.103
CACGGCAA	0.113
CACAGGGC	-0.253
CGTGCCCA	-0.00368
TACGGAAA	0.17
TACCGACA	0.298
AAATGGTC	0.14

Sequence	PBM E-score
AAAGCCAT	0.126
CGCATTCC	-0.173
ATCTCAGC	0.0764
ACCCTAAC	-0.0992
GTGAGTGA	-0.102
GACTACAC	-0.00713
ATCGTTTG	0.184
AATGATAG	0.104
GCCAAAGC	-0.0464
ATCGCAGA	-0.0761
ACTAAGCG	-0.00272
CACGGATC	0.0587
ACCTAAAT	-0.016
CTAACTTA	0.227
GCACCTGC	-0.162
GAACCAGC	0.012
ATAGTGTG	0.0124
GGTCAGGA	0.136
CTGTTAGA	-0.0588
CTTCCTAC	-0.257
GGATAGCA	-0.00882
GGGTCTAC	-0.171
TGAGTGAA	-0.115
GATGTCCA	0.458
CAAGGAAG	-0.0364

Sequence	PBM E-score
GAGATACC	0.105
ATCCCTTG	-0.0792
GTAGGGCA	-0.199
CACCTCAC	-0.0871
ATCAGAAG	-0.0462
AGGCAGCG	-0.198
GCCGGACC	-0.0867
CTTGTATC	0.106
GTGAAAGA	0.168
TACCGCGA	0.0826
CTGACCTC	-0.208
AGTAGTTG	0.0571
AAATCGTG	0.0983
AAAAAACG	0.185
AAGCAACT	0.14
CTATCGCC	-0.195
CGGTGATA	0.0477
AACCTCCC	-0.298
GGAATTTA	0.0324
CAGATTCC	-0.0173
CGCTAATC	-0.116
CCGTTAGC	0.0988
CTGATGAC	0.0578
ACCAATCT	-0.139
GCGGATGA	-0.0293

Sequence	PBM E-score
CATGAGAG	-0.0837
ACCCTCGC	-0.238
ATACAATA	0.114
GTGGATCA	-0.0446
ACACCTCC	-0.066
AGGCGTTG	0.0147
ACGTTATA	0.106
CATGCGGA	-0.0799
CCAGGATA	0.0404
AGTGCACC	-0.0574
ACACACAG	0.0288
GTCTACTA	0.0791
ACAACGGC	0.056
ATGATGAG	0.051
CGCACCCA	-0.196
CAGCACGC	-0.122
AGTGCATC	-0.143
ACAACCCA	0.0013
AAGGCGGA	-0.159
GTAGTTGA	0.103
CGTCGACG	-0.086
AAGGGAGG	-0.286
GCACCTCA	0.05
CATCTTAA	-0.00902
AAATGACG	0.214

Sequence	PBM E-score
CGAGGTAG	-0.251
CTCAACGC	-0.267
AACCTGAG	-0.0662
CGCTTCAG	-0.00969
GAAAGAGC	-0.103
CCCAAACG	0.106
CCCACGGC	-0.271
ATGCACGG	-0.13
GCAGGCCA	-0.00983
AGGGTCTA	-0.14
GAATATGA	0.0659
ACATGAGG	-0.0488
CATTAGTC	0.0288
ACCGTTGG	-0.139
CTTTTACA	0.261
ATTCAGCC	-0.0655
ACGGGGTC	-0.161
ATCCCACA	-0.141
ACGGCGCA	0.141
GGTGTAAC	0.0244
CGAAAGAC	0.0819
GCTAGTCA	-0.2
AGCGACTC	-0.183
GTGGTGTA	0.011
AATAAATA	0.302

Sequence	PBM E-score
CGCAGAGA	0.104
GGTGAAAA	0.175
TGAGTTAA	-0.0319
AATAAAGG	-0.119
AGCTCCTG	-0.175
AGAAGCCG	-0.0669
CCCAAGAG	-0.0231
AGGGCACC	-0.273
GATCTCCC	-0.161
ATGCAGTC	-0.186
ACAACAAT	0.229
AGCTATTC	-0.279
ACTTGGCT	-0.176
CACCCGAG	-0.074
GGCGCTCA	-0.151
CTAACAGA	0.112
AGAGCATC	-0.174
GGCGGCGA	-0.0421
GTACAATA	0.332
